Consider 1 molecule from publication PMC4981545 (Cell reports, 2016).

In test [1] the target is GST-tagged HPV-16 E2 (16E2), immobilized (HPV-16). Description: pull-down.
Test [2] concerns the target GST-tagged HPV-18 E2 (18E2), immobilized (HPV-18). The experiment in a line: pull-down.

B1: FLAG-tagged human BRD4 region […], bacterially expressed (fragment a) (domain or fragment)
chain: not shown
With B1, the binding result in test [1] and in test [2] was “binds” each time.
